The whole screen tested about 48,000 compounds, of which about 120 (0.25%) were called active. Another 4% or so got no clear call; they are omitted. Calls follow the shape of the dose curve; as a rule, active = well fitted activation curve with a large enough effect; inconclusive = small, poorly fitted or top-dose-only effect, or another doubt; inactive = no such curve, though single readings can be large or run the other way. Some of the results follow.
Test: Primary qHTS for Identification of Small Molecule Activators of Huntingtin-Antisense Promoter Activity; also: nearly all actives have a fitted effect of over 55% in size
Conditions: HEK293 HTT-AS promoter firefly luciferase reporter, 24 h; series mostly up to 57.5 µM; activity change, positive = activation: at the top concentration
How it was run: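 HEK293 cells carrying firefly luciferase reporters were seeded at 2,500 per well in Opti-MEM and cultured for 24 h. They were then treated with compounds at up to 57.5 uM final for 24 h at 37 degrees C before Dual-Glo luminescence readout.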

Activity change, positive = activation, inactive:
CCCCn1c(CCNC(=O)c2ccc(F)cc2)nc2ccccc21 -21.1%, COc1cccc(CNC(=O)Cn2cc3c(n2)-c2c(oc(C(=O)N4CCOCC4)c2C)CC3)c1 -24.6%, COc1ccc(S(=O)(=O)N2Cc3ccccc3CC2C(=O)Nc2cccc(C)c2)cc1OC (centres undefined) 5.74% [at 11.5 µM, percent change from vehicle, -100% = no light], CC1(C)S[C@H]2[C@H](NC(=O)[C@@H](N)c3ccc(O)cc3)C(=O)N2[C@@H]1C(=O)O -0.0477%, CCc1cccc(C)c1NC(=O)C1CCCN(S(=O)(=O)c2cccc3nsnc23)C1 (centres undefined) -16.9%, CCN(C(=O)CSc1nnc(-c2ccc(Cl)cc2)o1)c1ccccc1 -8.94%, CCOc1ccc2ncc3c(-c4ccccc4)nn(CC(=O)Nc4cccc(F)c4)c3c2c1 0.131%, Cc1ccc(C)c(N2CCN(CCCNC(=O)Cn3c(-c4cccs4)cc4ccccc43)CC2)c1 -39.7%, O=C(CSc1nc2c(c(=O)[nH]1)CCCC2)Nc1cccc(O)c1 -0.972%, CCCn1cc(S(=O)(=O)c2cccc(Cl)c2)c(=O)c2cc(F)c(N3CCN(CC)CC3)cc21 -6.8%, COc1cc2[nH]c(=O)n(CCCC(=O)NCc3ccccc3Cl)c(=O)c2cc1OC -13.9%, Cc1cc(OCCn2c(C3CC(=O)N(Cc4ccc(F)cc4)C3)nc3ccccc32)ccc1Cl (centres undefined) -57.3%, COCCCNC(=O)C1CCN(c2nnc(-n3cccc3CNc3ccc(C)cc3)s2)CC1 -22.5%, COCCCn1c(=N)c(S(=O)(=O)c2ccccc2)cc2c(=O)n3cccc(C)c3nc21 2.86%, Cc1cc(Nc2cc(NC(=O)c3c(Cl)cccc3Cl)ccn2)nc(N)n1 -12.5%, CC1(C)CC(=O)c2cc(C(=O)Nc3ccc(Br)cc3)c(=O)n(-c3ccc(Cl)cc3)c2C1 -3.59%, CCn1cc2nc(SCc3cc(C)ccc3C)n(Cc3ccc(C)cc3)c(=O)c2n1 -3.7%, COCCOc1nc(-c2ccc(Cl)c(Cl)c2)n(-c2ccc(NC(=O)CCl)cc2)n1 -15.8%, Cc1oc(-c2ccccc2F)nc1Cn1c(SCc2ccccc2F)nc2ccncc21 -13.6%, Cc1ccccc1OCc1nc2c3cnn(-c4ccccc4Br)c3ncn2n1 1.96%, Cc1ccc(C2c3cccn3CCN2S(=O)(=O)c2ccc([N+](=O)[O-])cc2)cc1 (centres undefined) -29.3%, COc1ccc(/C=N/NC(=O)c2ccncc2)cc1OC -7.25%, COC(=O)c1ccc(CSc2nc3c([nH]c4ccccc43)c(=O)n2-c2cccc(OC)c2)o1 -33.7%, Cc1ccnc(NS(=O)(=O)c2ccc(NC(=O)c3cc(=O)c4ccc(C)c(C)c4o3)cc2)n1 -3.22%, COc1ccc(CNC(=O)c2cc3c(=O)n(Cc4cccs4)ccc3nc2C)cc1 -24.6%, CCOC(=O)c1sc(NC(=O)c2nc(SCC)ncc2Cl)c(C(=O)OCC)c1C 13.7%, CN(C)CCNC(=O)Cc1ccc(NC(=O)N2CCCCc3ccccc32)cc1 -7.01%, Cc1ccc(C(=O)c2cn(Cc3ccc(F)cc3)c3nc(C)ccc3c2=O)cc1 -29.8%, CCOC(=O)c1cc(-c2ccc(C)cc2)n(CC(=O)Nc2cccc(C(C)=O)c2)c1C -14.5%, O=C(CC1N=C2c3ccccc3N=C(SCC(=O)Nc3cccc(Cl)c3)N2C1=O)NCc1cccs1 (centres undefined) -9.77%, CC1CCN(S(=O)(=O)c2ccc(N3CCCCS3(=O)=O)cc2)CC1 -14.5%, COc1ccc(CCNC(=O)Cn2cc(S(=O)(=O)Cc3ccccc3F)c3ccccc32)cc1OC -9.27%, Cc1cccc(Cn2c(=O)n(CCC(=O)NCc3ccc4c(c3)OCO4)c(=O)c3sccc32)c1 -6.23%, Cc1ccc(C)n1-c1nnc(N2CCC(C(=O)Nc3ccccc3Br)CC2)s1 3.37%, COc1ccc2c(c1)Cc1sc(NC(=O)c3ccccc3Br)nc1-2 5.94%, CCn1c(SCC(=O)Nc2ccc(C)cc2Br)nnc1-c1nonc1NC(C)=O -20%, COc1cccc(CNC(=O)CSc2nc(=O)[nH]c3c2CCCC3)c1 -3.78%, O=C(NCc1ccc(F)cc1)c1ccc(CS(=O)(=O)c2ccc(Cl)cc2)o1 -32.5%, CC(=O)N[C@@H](Cc1ccc(O)cc1)C(=O)O -12.2%, Oc1c(C(c2ccc(Cl)cc2Cl)N2CCOCC2)sc2nc(-c3ccco3)nn12 (centres undefined) -19.8%, OC[C@@H](O)[C@@H](O)[C@H](O)[C@H](O)CO -6.11%, CCc1ccc(NC(=O)Cn2c(=O)c(-c3ccccc3NC(C)=O)nc3ccccc32)cc1 -31%, CCOc1ccc(S(=O)(=O)N(CC(=O)NCCSCc2ccc(C)cc2)c2ccccc2)cc1 -13%, CCn1ccc2cc(S(=O)(=O)N3CCCN(C(=O)Nc4ccccc4C(F)(F)F)CC3)ccc21 -16.8%, Cc1ccc2c(=O)cc(C(=O)Nc3nnc(CC(C)C)s3)oc2c1C 2.08%, O=C(CN(c1ccc(Cl)c(C(F)(F)F)c1)S(=O)(=O)c1ccccc1)N1CCc2ccccc2C1 -7.79% [at 11.5 µM, percent change from vehicle, -100% = no light], C=CCc1ccc(O)c(OC)c1 -1.19%, Cc1ccc(NC(=O)c2sc(-n3nc(C)c(CCC(C)C)c3C)nc2C)cc1C 1.71%, Cc1nc2ccn(Cc3cccs3)c(=O)c2cc1C(=O)N1CCN(c2ccc(F)cc2)CC1 -17.4%, CCc1ccccc1N(C)C(=O)C1CCCN(c2ncnc3onc(-c4ccc(F)cc4)c23)C1 (centres undefined) -4.3%, Cc1ccc(OCCn2c(CNc3cccc(C)c3)nc3ccccc32)cc1 -11.7%, CCCN1CCc2nc(N3CCN(CC)CC3)ncc2C1 -10%, COc1ccccc1CNc1cc(-c2ccccc2)nc2nncn12 -32.4%, CCOc1cccc(C(=O)Nc2c(C(=O)c3ccc(OC)cc3)oc3ccccc23)c1 -8.77%, CCCCOC(=O)c1ccc(NC(=O)c2cc(-c3ccccc3)on2)cc1 1.22%, COc1ccc(N2Cc3cccc(C(=O)Nc4ccc(C(C)C)cc4)c3C2=O)cc1 6.23%, CC(=O)c1ccc(C(=O)N(CCCN(C)C)c2nc3c(C)c(C)ccc3s2)cc1 -21.6%, CS(=O)(=O)NCC(c1ccco1)N1CCN(c2ccccc2)CC1 (centres undefined) -15.1%, CCOC(=O)C1CCCN(C(=O)C2CCN(c3nnc(C)c4c(C)n(-c5ccccc5)nc34)CC2)C1 (centres undefined) -17.2%

From PubChem BioAssay AID1508624 (National Center for Advancing Translational Sciences (NCATS), 2021)
